# Test results: article doi:10.1101/2025.09.26.678709, “MRAP2 potentiates GPCR signaling by conserved mechanisms that are disrupted by obesity-associated genetic variants” (bioRxiv, 2025)
# T1: HA-Halo-MRAP2 (human, UniProt Q96G30 1-205, CA-Sulfo646 dye on the Halo tag)
# T1 construct: melanocortin receptor-2 accessory protein-2 (MRAP2), human; N-terminal signal peptide from rat mGluR2 in the construct; also called melanocortin receptor-2 accessory protein-2; source: HEK293, transfected, in lysate (LMNG-CHS); not shown: HA, N-terminal, kept; Halo, N-terminal, kept
# T1 sequence (looked up): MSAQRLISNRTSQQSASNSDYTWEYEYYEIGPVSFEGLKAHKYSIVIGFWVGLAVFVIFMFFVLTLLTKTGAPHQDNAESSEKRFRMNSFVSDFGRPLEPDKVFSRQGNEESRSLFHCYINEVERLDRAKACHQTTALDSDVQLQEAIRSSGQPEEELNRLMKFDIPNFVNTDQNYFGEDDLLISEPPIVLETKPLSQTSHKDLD
# Target: T1, HA-Halo-MRAP2
# Experiment: single-molecule pull-down (SiMPull) with photobleaching step counting; two-color: HA-Halo protein (CA-Sulfo646) and FLAG-CLIP protein (BC-DY547) co-expressed in HEK293 (300 ng Halo and 600 ng CLIP plasmid), lysed in 0.5% LMNG/0.05% CHS, captured by biotinylated anti-HA antibody, co-localized spots analysed by TIRF; also reanalysed for monomeric against oligomeric GPCR
# Conditions: partners not purified
binder,measurement,value
"FLAG-CLIP-MC4R (receptor, human, UniProt P32245 1-332, looked up, BC-DY547 dye on the CLIP tag, melanocortin receptor-4 (MC4R), human; N-terminal signal peptide from rat mGluR2 in the construct; source: HEK293, transfected, in lysate (LMNG-CHS); not shown: CLIP, N-terminal, kept) MVNSTHRGMHTSLHLWNRSSYRLHSNASESLGKGYSDGGCYEQLFVSPEVFVTLGVISLLENILVIVAIAKNKNLHSPMYFFICSLAVADMLVSVSNGSETIVITLLNSTDTDAQSFTVNIDNVIDSVICSSLLASICSLLSIAVDRYFTIFYALQYHNIMTVKRVGIIISCIWAACTVSGILFIIYSDSSAVIICLITMFFTMLALMASLYVHMFLMARLHIKRIAVLPGTGAIRQGANMKGAITLTILIGVFVVCWAPFFLHLIFYISCPQNPYCVCFMSHFNLYLILIMCNSIIDPLIYALRSQELRKTFKEIICCYPLGGLCDLSSRY",percent of co-localized spots with 2-step bleaching for MRAP2,24%
same,stoichiometry N,1 MRAP2 per MC4R
